# pIC50: −log10 of the molar value. A lower IC50 marks a more sensitive line; a limit (>, <) means that the fit lies beyond the doses tested. For AUC the same curve is integrated over the 256-fold range of doses and scaled to a fraction; it is 1 without any effect and falls as sensitivity rises. For part of these data: A top dose marked as inferred was derived from the fitted curves, not read from the paper. For part of these data: Where an entry number is given, a second screen of the drug exists; the two often differ.
# Experiments:
# Test in all cases: Viability of human cancer cell lines after 72 h of drug (GDSC screen)
# LAQ824 = compound: O=C(/C=C/c1ccc(CN(CCO)CCc2c[nH]c3ccccc23)cc1)NO [LAQ824]; conditions: top dose 1.024 µM; top dose inferred
# Description: (§1)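 Human cancer cell lines in 384-well plates, medium with 10% serum, drug for 72 h over a 256-fold dose range (nine 2-fold or five 4-fold steps up to the top dose). Adherent lines were fixed and stained with the nucleic acid dye Syto60, suspension lines read with resazurin; signal relative to control wells, capped at 0 and 100%. One two-parameter sigmoid per drug and line, fitted in a mixed model over all curves with the slope shared within a line.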
# Elesclomol = compound: CN(NC(=O)CC(=O)NN(C)C(=S)c1ccccc1)C(=S)c1ccccc1 [Elesclomol]; conditions: top dose 0.2 µM; top dose inferred
# Description: as §1
# OSI-930 = compound: O=C(Nc1ccc(OC(F)(F)F)cc1)c1sccc1NCc1ccnc2ccccc12 [OSI-930]; conditions: top dose 10.24 µM
# Description: as §1
# NSC-87877 = compound: O=S(=O)(O)c1ccc2cc(N=Nc3cc(S(=O)(=O)O)c4cccnc4c3O)ccc2c1 [NSC-87877]; conditions: top dose 16 µM; top dose inferred
# Description: as §1
# VNLG/124 = compound: CCCC(=O)OCc1ccc(OC(=O)/C=C(C)/C=C/C=C(C)/C=C/C2=C(C)CCCC2(C)C)cc1 [VNLG/124]; conditions: top dose 5.12 µM; top dose inferred
# Description: as §1
# BX-912 = compound: O=C(Nc1cccc(Nc2ncc(Br)c(NCCc3cnc[nH]3)n2)c1)N1CCCC1 [BX-912]; conditions: top dose 10.24 µM; top dose inferred
# Description: as §1
# Bleomycin = compound: Cc1c(N)nc([C@H](CC(N)=O)NC[C@H](N)C(N)=O)nc1C(=O)N[C@H](C(=O)N[C@H](C)[C@@H](O)[C@H](C)C(=O)N[C@H](C(=O)NCCc1nc(-c2nc(C(=O)NCCC[S+](C)C)cs2)cs1)[C@@H](C)O)[C@@H](OC1OC(CO)C(O)C(O)C1OC1OC(CO)C(O)C(OC(N)=O)C1O)c1cnc[nH]1 [Bleomycin]
# Description: as §1
# Masitinib = compound: Cc1ccc(NC(=O)c2ccc(CN3CCN(C)CC3)cc2)cc1Nc1nc(-c2cccnc2)cs1 [Masitinib]; conditions: top dose 20 µM
# Description: as §1
# HG-5-88-01 = compound: COc1cc(N2CCC(C(N)=O)CC2)ccc1Nc1nc(N)c(Cl)c(Nc2ccccc2S(=O)(=O)C(C)C)n1 [HG-5-88-01]; conditions: top dose 10 µM; top dose inferred
# Description: as §1
# [1] = top dose 50 µM, screen: GDSC drug entry 1378, top dose inferred
# [2] = top dose 64 µM, screen: GDSC drug entry 190
Cell Line,AUC (LAQ824),pIC50 (LAQ824),AUC (Elesclomol),pIC50 (Elesclomol),AUC (OSI-930),pIC50 (OSI-930),AUC (NSC-87877),pIC50 (NSC-87877),AUC (VNLG/124),pIC50 (VNLG/124),AUC (BX-912),pIC50 (BX-912),AUC (Bleomycin; [1]),pIC50 (Bleomycin; [1]),AUC (Bleomycin; [2]),pIC50 (Bleomycin; [2]),AUC (Masitinib),pIC50 (Masitinib),AUC (HG-5-88-01),pIC50 (HG-5-88-01)
"HEC-1 (endometrium, adherent)",0.45,7.33,0.461,8.01,0.979,< 4.99,0.989,< 4.80,0.989,< 5.29,0.988,< 4.99,0.7,4.95,0.786,4.58,0.98,< 4.70,0.923,< 5.00
"HT-29 (large intestine, adherent)",0.312,7.72,0.748,7.19,0.979,< 4.99,0.967,< 4.80,0.975,< 5.29,0.935,< 4.99,0.921,< 4.30,0.261,6.08,0.803,5.01,0.77,5.42
"Hs-578-T (breast, adherent)",0.986,< 5.99,0.517,7.86,0.984,< 4.99,0.986,< 4.80,0.987,< 5.29,0.96,< 4.99,0.678,4.99,0.951,< 4.19,0.987,< 4.70,0.968,< 5.00
"HuH-7 (liver, adherent)",0.732,6.53,0.576,7.69,0.985,< 4.99,0.987,< 4.80,0.987,< 5.29,0.86,5.07,0.442,5.66,0.455,5.52,0.951,< 4.70,0.83,5.20
"JIMT-1 (breast, adherent)",0.468,7.28,0.542,7.79,0.937,< 4.99,0.974,< 4.80,0.98,< 5.29,0.972,< 4.99,0.765,4.71,0.371,5.76,0.976,< 4.70,0.956,< 5.00
"KGN (ovary, adherent)",0.442,7.37,0.858,< 6.70,0.968,< 4.99,0.981,< 4.80,0.945,< 5.29,0.66,5.71,0.173,6.61,0.055,> 6.60,0.866,< 4.70,0.945,< 5.00
"SW620 (large intestine, adherent)",–,–,0.539,7.80,0.916,< 4.99,0.99,< 4.80,0.988,< 5.29,0.732,5.58,0.779,4.74,0.512,5.37,0.885,4.76,0.956,< 5.00

# — the supplement of paper PMC4967469
